The results in this text go back to PMC4336329 (PLoS ONE, 2015).

The campaign covered roughly 310,000 compounds. About 2,200 (0.71%) showed an effect of 50% or more. Effects have a minus sign here. The list shows a part of the results.

Sequence of human ether-à-go-go-related gene (hERG) potassium channel (Q12809 whole entry, looked up): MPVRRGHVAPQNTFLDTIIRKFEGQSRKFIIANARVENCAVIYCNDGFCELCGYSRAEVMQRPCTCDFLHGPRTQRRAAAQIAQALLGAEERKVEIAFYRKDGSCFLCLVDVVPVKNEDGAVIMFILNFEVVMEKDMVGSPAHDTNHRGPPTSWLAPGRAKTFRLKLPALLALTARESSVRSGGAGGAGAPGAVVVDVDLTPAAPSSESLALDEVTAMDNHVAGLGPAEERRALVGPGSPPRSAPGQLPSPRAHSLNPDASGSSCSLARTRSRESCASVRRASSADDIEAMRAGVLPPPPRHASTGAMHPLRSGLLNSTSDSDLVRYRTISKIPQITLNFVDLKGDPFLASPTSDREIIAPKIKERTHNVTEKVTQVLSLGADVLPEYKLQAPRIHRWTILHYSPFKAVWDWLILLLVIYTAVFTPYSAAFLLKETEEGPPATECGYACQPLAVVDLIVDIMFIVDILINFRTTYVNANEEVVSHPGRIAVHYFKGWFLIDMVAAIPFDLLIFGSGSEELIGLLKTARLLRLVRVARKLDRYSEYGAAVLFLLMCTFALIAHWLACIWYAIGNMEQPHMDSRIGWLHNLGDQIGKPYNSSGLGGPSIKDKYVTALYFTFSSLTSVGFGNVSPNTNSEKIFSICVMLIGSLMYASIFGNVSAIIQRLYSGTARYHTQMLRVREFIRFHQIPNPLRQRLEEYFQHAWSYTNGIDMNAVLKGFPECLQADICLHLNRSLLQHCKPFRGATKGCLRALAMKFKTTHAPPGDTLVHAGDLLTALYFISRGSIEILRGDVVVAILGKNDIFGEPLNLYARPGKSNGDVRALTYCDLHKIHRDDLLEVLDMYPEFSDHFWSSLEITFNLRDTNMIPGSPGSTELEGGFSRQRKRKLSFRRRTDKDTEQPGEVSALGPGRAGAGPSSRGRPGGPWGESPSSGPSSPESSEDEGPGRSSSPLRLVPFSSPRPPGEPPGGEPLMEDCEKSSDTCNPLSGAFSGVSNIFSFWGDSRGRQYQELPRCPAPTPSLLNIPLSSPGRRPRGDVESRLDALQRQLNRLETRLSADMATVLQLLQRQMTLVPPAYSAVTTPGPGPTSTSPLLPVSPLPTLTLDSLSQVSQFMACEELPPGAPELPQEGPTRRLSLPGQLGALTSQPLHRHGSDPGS

This assay concerns the target human ether-à-go-go-related gene (hERG) potassium channel (human, UniProt Q12809). In words: primary screen, population patch clamp on CHO cells stably expressing hERG.
Turning to `COc1cc(C)c(NC(=O)COc2cccc3c2OC(C)(C)C3)cc1OC`, the “hERG current change (%, negative = inhibition) at 1uM” value is 10.8%.

As for `CC(=O)Nc1ccc(OC(=O)c2cc3cc(Br)ccc3oc2=O)cc1`, the “hERG current change (%, negative = inhibition) at 1uM” value is 12.5%. For `CC(C)N1CCN(c2ccc(O)cc2)CC1`, the “hERG current change (%, negative = inhibition) at 1uM” value is reported as 6.22%.

Regarding `CC(C)OC(=O)CSc1nnc(CNc2cccc(Cl)c2)n1C`, the “hERG current change (%, negative = inhibition) at 1uM” value is 3.68%.

For the compound `O=C1NC2=C(C(=O)CCC2)C(c2ccccc2[N+](=O)[O-])N1` (stereo not shown), the “hERG current change (%, negative = inhibition) at 1uM” value is listed as 16%. In the case of `O=C(NCC(O)c1ccccc1)c1ccc(Cl)c(S(=O)(=O)N2CCCCC2)c1` (stereo not shown) it was 12.4%; in that of `C/C(=N\NC(=O)c1ccccc1O)c1ccc(NC(=O)Cc2ccccc2)cc1`, -9.34%. For `COc1ccc(NC2CCCN(C(=O)c3ccc(C(C)=O)cc3)C2)cc1` (stereo not shown) the value was 0.644%; for `COc1ccc(CCN(C)C(=O)C2CCN(C(=O)Nc3ccccc3)CC2)cc1OC`, 5.21%. For `CC(C)(C)NS(=O)(=O)c1ccc(Oc2ncc(C(F)(F)F)cc2Cl)cc1` the value was 18.1%; for `Nc1ccc(Oc2ccc3c(c2)C(=O)NC3=O)cc1`, 10.9%; for `Cc1ccc(Cl)cc1NC(=O)COC(=O)c1ccc(N2CCCC2)c([N+](=O)[O-])c1`, 6.19%. Regarding `CC(C)[C@H](NC(=O)[C@@H]1CSC2c3ccccc3C(=O)N21)C(=O)NCc1ccco1` (stereo partly shown), the “hERG current change (%, negative = inhibition) at 1uM” value was 18%. For `COC(=O)c1ccc(NC(=O)CN(C)S(=O)(=O)c2ccc(OC)c(C)c2)cc1` the value was 13.9%; for `CC1Cc2ccccc2N1Cc1nc2cc(C(F)(F)F)ccc2c(=O)[nH]1` (stereo not shown), 3.71%.

For `Cc1ccc(CNS(=O)(=O)c2ccc(-c3cnc(C4CC4)o3)cc2)cc1`, the “hERG current change (%, negative = inhibition) at 1uM” value was determined as 15.8%. In the case of `CCCN1CCC(=O)N(CCO)CC1` it was 3.69%.

With `O=C(NCc1ccco1)C12CC3CC(CC(C3)C1)C2`, the “hERG current change (%, negative = inhibition) at 1uM” value came out at 12.7%. As for `O=C(NCc1ccco1)c1ccc(-c2ccc(Cl)cc2)o1`, the “hERG current change (%, negative = inhibition) at 1uM” value stood at 6.11%. With `COc1cccc(CC(=O)Nc2ccc(-c3csc(C)n3)cc2)c1`, the “hERG current change (%, negative = inhibition) at 1uM” value came to 10.5%.

For the compound `CCOC(=O)C1CCN(Cc2ccccn2)CC1.O=C(O)C(=O)O`, the “hERG current change (%, negative = inhibition) at 1uM” value amounted to 16%. In the case of `Cc1ccc(N(CC(=O)NCc2ccccc2)C(=O)CCC(=O)Nc2nccs2)cc1` it was 11.7%; in that of `O=C(CCCc1nc(-c2ccc(Cl)cc2)no1)N1CCOCC1`, -9.31%. Regarding `CC1=NN(c2cccc([N+](=O)[O-])c2)C(=O)C1`, the “hERG current change (%, negative = inhibition) at 1uM” value turned out to be 19.7%. For `O=C(CC(c1ccccc1)c1ccccc1)NCC(O)c1ccc([N+](=O)[O-])cc1` (stereo not shown) the value was -13.4%.
